Experimental findings from the supplement of paper PMC12217912 are described below.

B1: TEV protease; numbered along this chain (parent)
chain: MGESLFKGPRDYNPISSSICHLTNESDGHTTSLYGIGFGPFIITNKHLFRRNNGTLVVQSLHGVFKVKDTTTLQQHLVDGRDMIIIRMPKDFPPFPQKLKFREPQREERICLVTTNFQTKSMSSMVSDTSCTFPSGDGIFWKHWIQTKDGQCGSPLVSTRDGFIVGIHSASNFTNTNNYFTSVPKNFMELLTNQEAQQWVSGWRLNADSVLWGGHKVFMVKPEEPFQPVKEATQL

Variants of B1 are the subject of this test. Kind of test: raw area under fraction-flipped curve 0-4 h after induction (AUC4h, not background-subtracted), DNA-recorder readout of cleavage of the substrate (dimensionless); higher = more cleavage of the substrate by the protease variant. The settings on record: temperature: 34 °C; time window: 0-4 h after rhamnose induction.

Some of the results follow. Sequences were assembled here from the parent chain. Inactive controls read about 0.05.
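Also: Bxb1 expression induced with 0.2% (w/v) L-rhamnose at OD600 near 0.5, cultures sampled hourly, flipped fraction per protease–substrate barcode pair counted by paired-end Illumina sequencing.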

Turning to MGESLFKGPRDYNPISSSICHLTNESDGHTTSLYGIGFGPFIITNKHLFRRNNGTLVVQSLHGVFKVKDTTTLQQHLVDGRDMIIIRMPKDFPPFPQKLKFREPQREERICLVTTNFQTKSMSSMVSDTSCTFPSGDGIFWKHWIQTKDGQCGSPQVSTRDGFIVGIHSASNFTNTNNYFTSVPKNFMELLTNQEAQQWVSGWRLNADSVLWGGHKVFMVKPEEPFQPVKEATQL [L156Q], the “area with substrate ENLYFQC” value is 0.0539, the “area with substrate ENLYFQD” value amounted to 0.0551, the “area with substrate ENLYFQF” value was 0.0357 and the “area with substrate ENLYFQH” value is 0.0369. For the same variant, the “area with substrate ENLYFQI” value amounted to 0.0487, the “area with substrate ENLYFQK” value is 0.0528, the “area with substrate ENLYFQL” value is 0.0295 and the “area with substrate ENLYFQN” value was 0.0518. Moreover, the “area with substrate ENLYFQR” value is 0.0486, the “area with substrate ENLYFQS” value was determined as 0.0559, the “area with substrate ENLYFQT” value came out at 0.0526 and the “area with substrate ENLYFQV” value is 0.0533. For the same variant, the “area with substrate ENLYFQW” value was 0.0456 and the “area with substrate ENLYFQY” value worked out at 0.0609.
Take MGESLFKGPRDYNPISSSICHLTNESDGHTTSLYGIGFGPFIITNKHLFRRNNGTLVVQSLHGVFKVKDTTTLQQHLVDGRDMIIIRMPKDFPPFPQKLKFREPQREERICLVTTNFQTKSMSSMVSDTSCTFPSGDGIFWKHWIQTKDGQCGSPHVSTRDGFIVGIHSASNFTNTNNYFTSVPKNFMELLTNQEAQQWVSGWRLNADSVLWGGHKVFMVKPEEPFQPVKEATQL [L156H]: the “area with substrate ENLYFQC” value was 0.0708, the “area with substrate ENLYFQD” value was 0.0619, the “area with substrate ENLYFQH” value is 0.066 and the “area with substrate ENLYFQK” value worked out at 0.0528. Further, the “area with substrate ENLYFQL” value is 0.0597, the “area with substrate ENLYFQM” value was found to be 0.045, the “area with substrate ENLYFQN” value was 0.0611 and the “area with substrate ENLYFQP” value was determined as 0.0525. The “area with substrate ENLYFQR” value turned out to be 0.0517, the “area with substrate ENLYFQS” value was 0.0591, the “area with substrate ENLYFQT” value worked out at 0.0558 and the “area with substrate ENLYFQW” value came to 0.0551.
With MGESLFKGPRDYNPISSSICHLTNESDGHTTSLYGIGFGPFIITNKHLFRRNNGTLVVQSLHGVFKVKDTTTLQQHLVDGRDMIIIRMPKDFPPFPQKLKFREPQREERICLVTTNFQTKSMSSMVSDTSCTFPSGDGIFWKHWIQTKDGQCGSPLSSTRDGFIVGIHSASNFTNTNNYFTSVPKNFMELLTNQEAQQWVSGWRLNADSVLWGGHKVFMVKPEEPFQPVKEATQL [V157S], the “area with substrate ENLYFQC” value is 0.0878, the “area with substrate ENLYFQG” value is 0.0678, the “area with substrate ENLYFQH” value amounted to 0.0697 and the “area with substrate ENLYFQI” value is 0.0481. In addition, the “area with substrate ENLYFQK” value amounted to 0.0525, the “area with substrate ENLYFQL” value stood at 0.0523, the “area with substrate ENLYFQN” value turned out to be 0.0616 and the “area with substrate ENLYFQQ” value stood at 0.0638. Further, the “area with substrate ENLYFQR” value was 0.0596, the “area with substrate ENLYFQS” value is 0.0733, the “area with substrate ENLYFQT” value stood at 0.0704 and the “area with substrate ENLYFQV” value worked out at 0.0594. The “area with substrate ENLYFQW” value stood at 0.063 and the “area with substrate ENLYFQY” value was 0.0616.
Turning to MGESLFKGPRDYNPISSSICHLTNESDGHTTSLYGIGFGPFIITNKHLFRRNNGTLVVQSLHGVFKVKDTTTLQQHLVDGRDMIIIRMPKDFPPFPQKLKFREPQREERICLVTTNFQTKSMSSMVSDTSCTFPSGDGIFWKHWITTKDGQCGSPLVSTRDGFIVGIHSASNFTNTNNYFTSVPKNFMELLTNQEAQQWVSGWRLNADSVLWGGHKVFMVKPEEPFQPVKEATQL [Q146T], the “area with substrate ENLYFQC” value was 0.0887, the “area with substrate ENLYFQD” value was determined as 0.0574, the “area with substrate ENLYFQE” value was 0.0602 and the “area with substrate ENLYFQF” value was 0.0597. Also, the “area with substrate ENLYFQG” value came out at 0.0892, the “area with substrate ENLYFQI” value was determined as 0.0581, the “area with substrate ENLYFQK” value is 0.0571 and the “area with substrate ENLYFQL” value stood at 0.0476. The “area with substrate ENLYFQM” value is 0.0921, the “area with substrate ENLYFQN” value came to 0.0808, the “area with substrate ENLYFQR” value amounted to 0.0332 and the “area with substrate ENLYFQS” value was determined as 0.103. Also, the “area with substrate ENLYFQT” value amounted to 0.0427, the “area with substrate ENLYFQV” value worked out at 0.083, the “area with substrate ENLYFQW” value was found to be 0.0679 and the “area with substrate ENLYFQY” value was found to be 0.0845.
MGESLFKGPRDYNPISSSICHLTNESDGHTTSLYGIGFGPFIITNKHLFRRNNGTLVVQSLHGVFKVKDTTTLQQHLVDGRDMIIIRMPKDFPPFPQKLKFREPQREERICLVTTNFQTKSMSSMVSDTSCTFPSGDGIFPKHWIQTKDGQCGSPLVSTRDGFIVGIHSASNFTNTNNYFTSVPKNFMELLTNQEAQQWVSGWRLNADSVLWGGHKVFMVKPEEPFQPVKEATQL [W141P]: the “area with substrate ENLYFQC” value worked out at 0.0469, the “area with substrate ENLYFQD” value came to 0.0517, the “area with substrate ENLYFQE” value turned out to be 0.0589 and the “area with substrate ENLYFQF” value amounted to 0.0639. Moreover, the “area with substrate ENLYFQG” value worked out at 0.0557, the “area with substrate ENLYFQH” value amounted to 0.0491, the “area with substrate ENLYFQI” value is 0.0459 and the “area with substrate ENLYFQK” value turned out to be 0.0565. The “area with substrate ENLYFQL” value worked out at 0.0684, the “area with substrate ENLYFQM” value was determined as 0.0751, the “area with substrate ENLYFQN” value is 0.0524 and the “area with substrate ENLYFQS” value is 0.0548. Moreover, the “area with substrate ENLYFQT” value came out at 0.055, the “area with substrate ENLYFQW” value worked out at 0.0489 and the “area with substrate ENLYFQY” value was 0.0552.
For MGESLFKGPRDYNPISSSICHLTNESDGHTTSLYGIGFGPFIITNKHLFRRNNGTLVVQSLHGVFKVKDTTTLQQHLVDGRDMIIIRMPKDFPPFPQKLKFREPQREERICLVTTNFQTKSMSSMVSDTSCTFPSGDGIFWKHWIQTKDGQCGHPLVSTRDGFIVGIHSASNFTNTNNYFTSVPKNFMELLTNQEAQQWVSGWRLNADSVLWGGHKVFMVKPEEPFQPVKEATQL [S154H], the “area with substrate ENLYFQC” value turned out to be 0.0944, the “area with substrate ENLYFQF” value worked out at 0.0646, the “area with substrate ENLYFQG” value was 0.185 and the “area with substrate ENLYFQK” value was 0.0551. Also, the “area with substrate ENLYFQL” value was found to be 0.0575, the “area with substrate ENLYFQM” value was 0.0778, the “area with substrate ENLYFQN” value is 0.0674 and the “area with substrate ENLYFQP” value was determined as 0.0465. Further, the “area with substrate ENLYFQR” value was determined as 0.0741, the “area with substrate ENLYFQS” value came to 0.0905, the “area with substrate ENLYFQT” value was 0.0521 and the “area with substrate ENLYFQV” value is 0.0679. Besides, the “area with substrate ENLYFQW” value came to 0.0627 and the “area with substrate ENLYFQY” value amounted to 0.0644.
Take MGESLFKGPRDYNPISSSICHLTNESDGHTTSLYGIGFGPFIITNKHLFRRNNGTLVVQSLHGVFKVKDTTTLQQHLVDGRDMIIIRMPKDFPPFPQKLKFREPQREERICLVTTNFQTKSMSSMVSDTSCTFPSGDGIFWKHWIQTKDGQCGWPLVSTRDGFIVGIHSASNFTNTNNYFTSVPKNFMELLTNQEAQQWVSGWRLNADSVLWGGHKVFMVKPEEPFQPVKEATQL [S154W]: the “area with substrate ENLYFQC” value amounted to 0.0469, the “area with substrate ENLYFQD” value was 0.0589, the “area with substrate ENLYFQI” value stood at 0.0578 and the “area with substrate ENLYFQK” value came to 0.0605. For the same variant, the “area with substrate ENLYFQL” value came out at 0.0624, the “area with substrate ENLYFQN” value turned out to be 0.0467, the “area with substrate ENLYFQQ” value is 0.056 and the “area with substrate ENLYFQR” value came out at 0.0636. The “area with substrate ENLYFQS” value was 0.07, the “area with substrate ENLYFQT” value is 0.0699 and the “area with substrate ENLYFQW” value is 0.0587.
As to MGESLFKGPRDYNPISSSICHLTNESDGHTTSLYGIGFGPFIITNKHLFRRNNGTLVVQSLHGVFKVKDTTTLQQHLVDGRDMIIIRMPKDFPPFPQKLKFREPQREERICLVTTNFQTKSMSSMVSDTSCTFPSGDGIFWKHWIQQKDGQCGSPLVSTRDGFIVGIHSASNFTNTNNYFTSVPKNFMELLTNQEAQQWVSGWRLNADSVLWGGHKVFMVKPEEPFQPVKEATQL [T147Q], the “area with substrate ENLYFQC” value worked out at 0.0572, the “area with substrate ENLYFQE” value stood at 0.059, the “area with substrate ENLYFQF” value came out at 0.0588 and the “area with substrate ENLYFQG” value stood at 0.0601. The “area with substrate ENLYFQH” value worked out at 0.061, the “area with substrate ENLYFQK” value amounted to 0.0439, the “area with substrate ENLYFQL” value was found to be 0.0534 and the “area with substrate ENLYFQM” value is 0.0378. Further, the “area with substrate ENLYFQN” value was 0.0603, the “area with substrate ENLYFQQ” value came to 0.0597, the “area with substrate ENLYFQR” value is 0.0581 and the “area with substrate ENLYFQS” value turned out to be 0.0687. Besides, the “area with substrate ENLYFQT” value came to 0.0523, the “area with substrate ENLYFQV” value was found to be 0.0695, the “area with substrate ENLYFQW” value turned out to be 0.0623 and the “area with substrate ENLYFQY” value came out at 0.0577.
For MGESLFKGPRDYNPISSSICHLTNESDGHTTSLYGIGFGPFIITNKHLFRRNNGTLVVQSLHGVFKVKDTTTLQQHLVDGRDMIIIRMPKDFPPFPQKLKFREPQREERICLVTTNFQTKSMSSMVSDTSCTFGSGDGIFWKHWIQTKDGQCGSPLVSTRDGFIVGIHSASNFTNTNNYFTSVPKNFMELLTNQEAQQWVSGWRLNADSVLWGGHKVFMVKPEEPFQPVKEATQL [P134G], the “area with substrate ENLYFQC” value is 0.0496, the “area with substrate ENLYFQD” value turned out to be 0.0679, the “area with substrate ENLYFQH” value came to 0.117 and the “area with substrate ENLYFQI” value is 0.0576. Further, the “area with substrate ENLYFQK” value was determined as 0.06, the “area with substrate ENLYFQL” value came to 0.0712, the “area with substrate ENLYFQM” value was 0.0732 and the “area with substrate ENLYFQN” value stood at 0.0651. Moreover, the “area with substrate ENLYFQP” value came out at 0.0526, the “area with substrate ENLYFQQ” value stood at 0.0626, the “area with substrate ENLYFQR” value came to 0.0298 and the “area with substrate ENLYFQS” value came to 0.0836. Besides, the “area with substrate ENLYFQT” value was determined as 0.0647 and the “area with substrate ENLYFQW” value was 0.0545.
